Laboratory results reported in the supplement of paper PMC12217912.
The other results are listed elsewhere or left out. Sequences were assembled here from the parent chain. Values near 0.05 are background.

B1: TEV protease; numbered along this chain (parent)
chain: MGESLFKGPRDYNPISSSICHLTNESDGHTTSLYGIGFGPFIITNKHLFRRNNGTLVVQSLHGVFKVKDTTTLQQHLVDGRDMIIIRMPKDFPPFPQKLKFREPQREERICLVTTNFQTKSMSSMVSDTSCTFPSGDGIFWKHWIQTKDGQCGSPLVSTRDGFIVGIHSASNFTNTNNYFTSVPKNFMELLTNQEAQQWVSGWRLNADSVLWGGHKVFMVKPEEPFQPVKEATQL

Variants of: B1
Assay: raw area under fraction-flipped curve 0-4 h after induction (AUC4h, not background-subtracted), DNA-recorder readout of cleavage of the substrate (dimensionless); higher = more cleavage of the substrate by the protease variant
Conditions: temperature: 34 °C; time window: 0-4 h after rhamnose induction
Description: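 In vivo DNA recorder in E. coli TOP10(DE3) ΔrhaA at 34 °C. Each TEVp single-site mutant (parent TEVp 0) is paired with a single-site variant of the 7-mer TEVs (canonical ENLYFQ|S). The substrate sits between flexible linkers in a Bxb1-sfGFP-TEVs-SsrA fusion, so cleavage stabilises Bxb1 and speeds flipping of a recombination array, read by NGS. The value is the raw area under the fraction-flipped curve over 0-4 h after rhamnose induction (AUC4h), with ≥20 reads per time point. It is not background-subtracted; inactive controls average about 0.047.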
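Note: Bxb1 expression induced with 0.2% (w/v) L-rhamnose at OD600 near 0.5, cultures sampled hourly, flipped fraction per protease–substrate barcode pair counted by paired-end Illumina sequencing.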

Row | Variant | area with substrate ENLYFQA | area with substrate ENLYFQC | area with substrate ENLYFQG | area with substrate ENLYFQI | area with substrate ENLYFQK | area with substrate ENLYFQL | area with substrate ENLYFQM | area with substrate ENLYFQN | area with substrate ENLYFQP | area with substrate ENLYFQQ | area with substrate ENLYFQS | area with substrate ENLYFQT | area with substrate ENLYFQD | area with substrate ENLYFQH | area with substrate ENLYFQR | area with substrate ENLYFQV | area with substrate ENLYFQE | area with substrate ENLYFQW | area with substrate ENLYFQY | area with substrate ENLYFQF
1 | W144R | 0.0509 | 0.101 | 0.172 | 0.0671 | 0.0505 | 0.0559 | 0.0776 | 0.0711 | 0.062 | 0.0284 | 0.0818 | 0.0596 |  |  |  |  |  |  |  | 
2 | K120Y | 0.108 | 0.114 | 0.0938 | 0.0607 |  | 0.0603 | 0.0871 | 0.0744 |  |  | 0.0945 | 0.0609 | 0.0661 | 0.0761 | 0.0565 | 0.0566 |  |  |  | 
3 | K120P | 0.0916 | 0.104 |  |  |  | 0.0841 | 0.0772 |  | 0.0589 |  | 0.101 | 0.0672 | 0.0962 |  | 0.0551 |  | 0.0711 |  |  | 
4 | K120F | 0.0998 | 0.124 | 0.0758 | 0.0305 |  | 0.0733 |  | 0.0799 |  |  | 0.102 | 0.0425 | 0.0943 | 0.0783 | 0.0551 |  |  | 0.0544 | 0.0858 | 
5 | K120W | 0.104 | 0.0895 |  |  |  | 0.0548 | 0.0783 |  | 0.0543 |  | 0.0942 | 0.0645 | 0.0737 |  |  | 0.0472 |  |  |  | 
6 | K120H | 0.127 | 0.118 | 0.0688 |  | 0.0662 | 0.0679 |  | 0.0982 |  | 0.0846 | 0.112 | 0.0663 | 0.0457 |  | 0.0586 | 0.0524 |  |  | 0.0546 | 0.0781
7 | D128E | 0.0938 | 0.12 |  | 0.0677 | 0.0502 | 0.0605 |  | 0.0762 |  | 0.0867 | 0.109 | 0.0666 | 0.0684 |  |  | 0.0659 |  |  |  | 0.0784
8 | D128M | 0.116 | 0.184 | 0.166 | 0.0565 | 0.0538 | 0.0675 | 0.14 | 0.13 | 0.0521 | 0.111 | 0.166 | 0.0851 | 0.0964 | 0.101 | 0.0478 | 0.0748 |  | 0.074 | 0.091 | 
9 | D128L | 0.107 | 0.138 | 0.159 |  | 0.0557 | 0.0703 | 0.103 | 0.108 | 0.0664 | 0.0761 | 0.148 | 0.0586 | 0.0725 | 0.105 | 0.0698 |  |  | 0.0661 | 0.0606 | 
10 | D128A | 0.125 | 0.193 |  |  | 0.0635 | 0.0701 | 0.0888 | 0.113 |  | 0.088 | 0.13 | 0.0686 | 0.0933 | 0.108 | 0.0551 | 0.0701 |  |  | 0.0821 | 
11 | D128F | 0.146 |  | 0.11 | 0.0371 | 0.0879 | 0.0594 | 0.114 | 0.109 |  |  | 0.157 | 0.0816 |  | 0.136 | 0.0622 |  |  | 0.0825 | 0.0688 | 
12 | K142G | 0.0711 | 0.0809 | 0.0812 | 0.0518 | 0.067 | 0.0665 | 0.0758 | 0.0641 | 0.0816 | 0.0777 | 0.0766 | 0.0606 |  |  | 0.0636 | 0.0653 | 0.0592 | 0.0846 | 0.0606 | 
13 | P93S | 0.0829 | 0.079 | 0.0876 | 0.0923 |  | 0.0738 | 0.0788 | 0.0804 | 0.0608 |  | 0.0996 | 0.0661 | 0.062 |  | 0.0639 | 0.0623 |  | 0.0625 |  | 0.0687
